# Test results: PubChem BioAssay AID1645882 (National Center for Advancing Translational Sciences (NCATS), 2021)
# The whole screen tested about 16,000 compounds, of which about 120 (0.75%) were called active. Not shown: some 4% with an inconclusive outcome. Calls come from the whole dose curve; as a rule, active = well fitted inhibition curve with a large enough effect; inconclusive = small, poorly fitted or top-dose-only effect; inactive = no such curve, though single readings can be large or run the other way. The list shows a part of the results.
# Target: Rap guanine nucleotide exchange factor 3 (Homo sapiens) (UniProt O95398)
# Experiment: Validation qHTS for antagonist of cAMP-regulated guanine nucleotide exchange factor 3 (EPAC1); note: nearly all actives have a fitted effect of over 75% in size
# Conditions: EPAC1 Rap1B-BODIPY-GDP exchange, fluorescence; activity change, negative = inhibition: at the top concentration
# From the text: Assay Provider (PI): Xiaodong Cheng Ph.D.
# The University of Texas Medical Branch, […], TX
# In multi-cellular eukaryotic organisms, the effects of cAMP are transduced by two ubiquitously-expressed intracellular cAMP receptors, the classic protein kinase A/cAMP-dependent protein kinase (PKA/cAPK) and the more recently discovered exchange protein directly activated by cAMP/cAMP-regulated guanine nucleotide exchange factor (EPAC/cAMP-GEF). Both PKA and EPAC are ubiquitously expressed in all tissues, and an increase in intracellular cAMP levels will lead to the activation of both PKA and EPAC. Therefore, careful dissections of the individual role and relative contribution of EPAC and PKA within the overall cAMP signaling in various model systems are critical for further elucidating the mechanism of cAMP signaling. To date no EPAC-specific antagonists and agonist, as well as isoform-specific agonists have been reported, and developing EPAC-specific pharmacological probes to determine the physiological functions that EPAC play in the overall cAMP-mediated signaling remains a major challenge within the research field. Furthermore, identified regulators of EPAC may lead to new mechanism-based therapeutic strategies specifically targeting the EPAC / cAMP-signaling components as EPAC has been implicated to play important roles in major human pathological conditions such as diabetes, heart disease, and cancer.
# This qHTS will be used to screen the Molecular Libraries Small Molecule Repository (MLSMR) as a concentration-titration series using the NCGC unique quantitative screening (qHTS) platform to find activators for EPAC1. In addition, this assay will also be used as a counterscreen for the EPAC2 qHTS. This fluorescent based assay is developed and validated for EPAC1 that measures exchange using EPAC effector Rap1 complex with BODIPY-GDP, a GDP analog with a tethered fluorophores. Activators are identified by monitoring the change in fluorescence signal as the exchanged free BODIPY-GDP has a reduced fluorescence compared to Rap1-bound BODIPY-GDP. Increase in signal (activation) is the desired outcome for the EPAC1 agonist while no activity in this assay is desired for the EPAC2 agonist counterscreen.
# [1] de Rooij, J., Zwartkruis, F. J., Verheijen, M. H., Cool, R. H., Nijman, S. M., Wittinghofer, A., and Bos, J.L. (1998) Nature 396, 474-477.
# Briefly, three uL of reagents (100 nM EPAC1, 250 nM RAP1B-BODIPY-GDP, 50 uM GDP) were dispensed into a 1536-well Greiner black solid-bottom medium binding assay plate. Controls and test compounds (23 nL) were transferred to the plate via a Kalypsys pin tool equipped with a 1536-pin array. The plates were centrifuged at 1,000 rpm for 15 seconds followed by 5 minute incubation at room temperature. The assay plates were read at 5 minute intervals for 30 minutes in the ViewLux plate reader using 480nm excitation and 540nm emission filters. The results were normalized to the […] positive control ATA and DMSO.
# Potency is the fitted concentration of half-maximal effect.
# UniProt O95398, sequence (O95398 whole entry, looked up): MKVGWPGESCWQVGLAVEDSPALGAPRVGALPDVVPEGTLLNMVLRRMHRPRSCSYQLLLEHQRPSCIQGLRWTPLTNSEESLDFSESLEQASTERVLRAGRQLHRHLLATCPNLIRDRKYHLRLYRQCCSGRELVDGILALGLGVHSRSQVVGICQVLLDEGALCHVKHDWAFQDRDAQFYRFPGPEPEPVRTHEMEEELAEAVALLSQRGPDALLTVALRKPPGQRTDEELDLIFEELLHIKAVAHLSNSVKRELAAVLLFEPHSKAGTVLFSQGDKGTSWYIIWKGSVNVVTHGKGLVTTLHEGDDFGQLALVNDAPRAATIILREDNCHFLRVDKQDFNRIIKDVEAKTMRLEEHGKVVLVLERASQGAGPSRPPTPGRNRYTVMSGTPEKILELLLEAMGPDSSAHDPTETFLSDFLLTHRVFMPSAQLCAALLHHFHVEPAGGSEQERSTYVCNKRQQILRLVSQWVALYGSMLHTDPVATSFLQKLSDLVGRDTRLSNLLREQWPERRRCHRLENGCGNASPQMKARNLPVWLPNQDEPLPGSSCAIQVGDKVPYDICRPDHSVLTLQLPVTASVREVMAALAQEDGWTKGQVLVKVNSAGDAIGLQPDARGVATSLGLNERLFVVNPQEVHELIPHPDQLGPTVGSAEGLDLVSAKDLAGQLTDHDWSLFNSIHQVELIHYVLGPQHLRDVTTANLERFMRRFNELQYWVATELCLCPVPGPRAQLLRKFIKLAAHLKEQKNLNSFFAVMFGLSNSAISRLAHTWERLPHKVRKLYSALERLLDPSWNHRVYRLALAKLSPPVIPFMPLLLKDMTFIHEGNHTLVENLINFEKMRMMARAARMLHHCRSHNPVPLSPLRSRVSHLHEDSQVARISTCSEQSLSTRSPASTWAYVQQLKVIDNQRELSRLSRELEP
Structure (SMILES),"activity change, negative = inhibition",Potency
CN[C@@H](C)Cc1ccccc1,inactive: 18.5% [at 320 µM],–
CN1CCc2cc(O)cc3c2[C@H]1Cc1ccc(O)c(O)c1-3,inactive: 4.22% [at 75.8 µM],–
CC(NC(C)(C)C)C(=O)c1cccc(Cl)c1 (stereo not given),inactive,–
CN(C)CCCCCCN(C)C (tested in a mixture with another compound),inactive: 7.39%,–
O=C(O)CCCO,inactive: 18.9% [at 320 µM],–
COc1ccc(OC)c(C[C@H](C)N)c1,inactive: 32% [at 320 µM],–
NCc1cccnc1,inactive: 8.19%,–
CCCCC/C=C\C/C=C\C/C=C\C/C=C\CCCCCC(=O)NCCO,inactive: 5.39% [at 15.3 µM],–
C[C@H](N)Cc1cccc(C(F)(F)F)c1,inactive: -7.79% [at 75.8 µM],–
[S]=[Sb](=[S])[S][Sb](=[S])=[S],inactive: 18.7%,–
Cc1cc(C)cc(C(=O)OC2C[C@H]3CC[C@@H](C2)N3C)c1 (stereo not given in full),inactive,–
CN(C)[C@@H]1C(=O)C(C(N)=O)=C(O)[C@@]2(O)C(=O)C3=C(O)c4c(O)cccc4[C@@](C)(O)[C@H]3C[C@@H]12,inactive: 22.2% [at 75.8 µM],–
CCCC[N+]12C3CC(C(CC)[C@H]1O)[C@@H]1C(O)C4(C[C@@H]12)c1ccccc1N(C)C34 (stereo not given in full),inactive: 24.3%,–
NC[C@H](CC(=O)O)c1ccc(Cl)cc1,inactive: 5.43%,–
C=CCSSCC=C,inactive: 7.17%,–
CC(C)NC(=O)N1CCC2(CCNCC2)CC1,inactive: 19.2%,–
O[C@@H]1[C@H](O)[C@H]2[C@@H](O)CCN2C[C@@H]1O,inactive: 4.73%,–
NCC(CC(=O)O)c1ccc(Cl)cc1 (stereo not given),inactive,–
O=C1OC(c2ccc(O)c(S(=O)(=O)O)c2)(c2ccc(O)c(S(=O)(=O)O)c2)c2c(Br)c(Br)c(Br)c(Br)c21,–,active: 14.1 µM
CC(=O)O[C@H]1CC[C@H]2[C@@H]3CCC4=CC(=O)CCC4=C3C=C[C@]12C,inactive: 6.34%,–
CC(C)CN1CC2(CCN(C(=O)c3ccncc3)CC2)C1,inactive: 9.72%,–
O=c1cccc2n1CC1CNC[C@H]2C1,inactive,–
CC(C)[C@]12O[C@H]1[C@@H]1O[C@]13[C@]1(O[C@H]1C[C@H]1C4=C(CC[C@@]13C)C(=O)OC4)[C@@H]2O,inactive: 1.76% [at 201 µM],–
CCOC(=O)CC(SP(=S)(OC)OC)C(=O)OCC (stereo not given),inactive,–
CN(C(=O)Cc1ccc(Cl)c(Cl)c1)C(CN1CCCC1)c1cccc(N=C=S)c1 (stereo not given),inactive: 5.58%,–

Structure (SMILES),"activity change, negative = inhibition",Potency
CC(C)=C[C@@H]1[C@@H](C(=O)OCc2coc(Cc3ccccc3)c2)C1(C)C,inactive: 0.96%,–
CCCN(CCC)CCc1c[nH]c2ccccc12,inactive: 14.5% [at 320 µM],–
CN1CC[C@]23c4c5ccc(O)c4O[C@H]2[C@@H](O)C=C[C@H]3[C@H]1C5,inactive: -7.26% [at 320 µM],–
CN(CCCC(=O)c1cccnc1)N=O,inactive: 20.4%,–
O=[N+]([O-])c1cc([N+](=O)[O-])c2ccccc2c1,inactive: 46.9% [at 320 µM],–
CC(N)Cc1ccc(O)cc1 (stereo not given),inactive: 6.83%,–
C[Se]C[C@H](N)C(=O)O,inactive: -3.63% [at 75.8 µM],–
O=C1CN(O)C(c2ccccc2)=c2cc(Cl)ccc2=N1,inactive: 7.51%,–
CCOC(=O)c1ncn2c1[C@@H]1CCCN1C(=O)c1cc(OC)ccc1-2,inactive: -3.12% [at 75.8 µM],–
NC(N)=Nc1ccc2[nH]c3c(c2c1)C[C@@]1(O)[C@H]2Cc4ccc(O)c5c4[C@@]1(CCN2CC1CC1)[C@H]3O5,inactive: 1.25% [at 75.8 µM],–
c1ccc(CN2CC[C@@]3(CCCNC3)C2)cc1,inactive: 20.1%,–
c1cncc(C2CCCN2)c1 (stereo not given),inactive: 18.3%,–
COc1cc([N+](=O)[O-])cc([N+](=O)[O-])c1N,inactive: 20.3%,–
CCC1(C2=NCCN2)Cc2ccccc2O1 (stereo not given),inactive,–
COc1cc(C2c3cc4c(c(O)c3CC3COC(=O)C32)OCO4)cc(OC)c1OC (stereo not given),inactive: 8.82%,–
C[C@H]1O[C@@H](O[C@H]2[C@@H](O)C[C@H](O[C@H]3[C@@H](O)C[C@H](O[C@H]4CC[C@]5(C)C6CC[C@]7(C)[C@@H](C8=CC(=O)OC8)CC[C@]7(O)C6CC[C@@H]5C4)O[C@@H]3C)O[C@@H]2C)C[C@H](O)[C@@H]1O (stereo not given in full),inactive: 2.92%,–
CC[C@@H](CO)NC(=O)[C@@H]1C=C2c3cccc4[nH]cc(c34)C[C@H]2N(C)C1,inactive,–
CCCCOC(=O)c1ccccc1C(=O)OCCCC,inactive: 4.76%,–
C/C(=C\C=C/[C@@H](C)C(=O)O)[C@H]1CN[C@H](C(=O)O)[C@@H]1CC(=O)O,inactive: -10.8%,–
CCC1(CCC(C)C)C(=O)NC(=O)NC1=O,inactive: -0.724% [at 320 µM],–
CC(C)(C)c1cc(C=C(C#N)C#N)cc(C(C)(C)C)c1O,inactive,–
CC(C)[C@@H]1CN[C@H](C(=O)O)[C@@H]1CC(=O)O,inactive: -13.7%,–
O=[N+]([O-])c1ccc(O[C@@H]2O[C@H](CO)[C@@H](O)[C@H](O)[C@H]2F)c([N+](=O)[O-])c1,inactive: -9.64% [at 75.8 µM],–
O=C(O)c1nn(Cc2ccc(Cl)cc2Cl)c2ccccc12,inactive,–
CNCCc1cnc[nH]1,inactive,–
